Assay results reported in PubChem BioAssay AID662 (National Center for Advancing Translational Sciences (NCATS), 2007).
Screen size: about 71,000 compounds; about 1,800 (2.5%) were called active. Inconclusive means that the source gave no clear call. Such entries were picked first, then a sample of the others. The call rests on the fitted dose curve; in most records, active means well fitted activation curve with a large enough effect in the signal ratio, with a control signal flat (not every such curve was filed as active); inconclusive means small, poorly fitted or top-dose-only effect, or effect the other way, or a change in a side signal; inactive means flat fitted curve, though single readings scatter; the % refers to the signal ratio. Where the call is inconclusive, the potency comes from a doubtful curve fit.

Experiment: Cell signaling CRE-BLA (Fsk stim); on activity change, negative = inhibition: % of control where 0% means no effect
Conditions: CHO CRE-bla reporter (cAMP response element driving beta-lactamase), forskolin EC10, beta-lactamase ratio; activity change, negative = inhibition: at 38.2 µM (top of the series) unless noted
In short: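 The 460nm/530nm emission ratio after CCF4 loading defined %Activity, from which AC50 values were obtained. CRE-bla CHO cells received compound dilution series together with an EC10 level of NKH 477 for 3 hours at 37 degrees Celsius.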
Potency means the concentration at half of the fitted maximal effect; tags describe the fitted curve by direction and shape.

Row | Compound | Potency | activity change, negative = inhibition
1 | CCc1cc2c(=O)c(-c3nc4ccccc4n3C)c(C(C)C)oc2c(CN2CCN(C)CC2)c1O | inactive | –
2 | CCc1nc(NCCCN2CCOCC2)c2oc3ccccc3c2n1 | inconclusive: 12.6 µM [rising, partial curve] | –
3 | CCCn1c(C)nc2c(c1=O)c1nc3ccccc3nc1n2-c1ccc2c(c1)OCCO2 | inactive | –
4 | Cc1ccc(C(=O)[C@@H]2[C@@H]3[C@@H](C(=O)[C@@H]4OC[C@H]3O4)[C@@H]3C=Cc4ccccc4N23)cc1 | – | inconclusive: -23.8%
5 | NC(=O)CSc1nnc(COc2ccccc2)n1C1CCCCC1 | inactive | –
6 | COc1ccc(S(=O)(=O)Nc2cccc(NC(C)=O)c2)cc1 | inactive | –
7 | COc1ccc(NC(=O)CSc2nc3c(c(=O)n2-c2ccc(F)cc2)SCC3)c(OC)c1 | inconclusive: 3.16 µM [rising, full curve, poor fit] | –
8 | CCn1c(CSc2nc3ccccc3n2C)nc2ccccc21 | inconclusive: 7.94 µM [rising, partial curve] | –
9 | COc1ccc(NC(=O)c2cc(-c3ccccc3OC)on2)cc1 | inconclusive: 5.01 µM [rising, partial curve] | –
10 | Cc1ccccc1NC(=O)C1CCCN1C(=O)NC1CCCCC1 (configuration not stated) | inactive | –
11 | CC1CCN(CCNC(=O)CCS(=O)(=O)c2ccc(Br)cc2)CC1 | – | inconclusive: -15.8%
12 | Cc1ccc2ccccc2c1CSc1nc(N)nc2c1ncn2CC(C)C | inconclusive: 3.98 µM [rising, partial curve] | –
13 | CCCN(c1ccc(C(C)C)cc1)S(=O)(=O)c1c(C)noc1C | – | inconclusive: 7.24%
14 | CCN1CCN(c2cc(=O)n(-c3cc(Cl)ccc3C)c(=O)[nH]2)CC1 | inconclusive: 0.0316 µM [rising, full curve, poor fit] | –
15 | CC(=O)c1cccc(NC(=O)N2CCCC2C(=O)NC2CCCCC2)c1 (configuration not stated) | – | inconclusive: -30%
16 | COCCn1c(-c2cc(OC)c(OC)c(OC)c2)nc2nc3ccccc3nc21 | inconclusive: 5.01 µM [rising, partial curve] | –
17 | N#CCCSCc1ccc(C(=O)O)o1 | – | inconclusive: -4.52%
18 | Cc1nc2ccccc2c(=O)n1NC(=O)c1c(O)c2c(n(CC(C)C)c1=O)CCCC2 | inconclusive: 7.94 µM [rising, partial curve] | –
19 | Clc1ccccc1-c1nn2c(Cn3cnc4ccccc43)nnc2s1 | inconclusive: 10 µM [rising, partial curve, poor fit] | –
20 | CCN(CC)CCNC(=O)c1ccc(NC(C)=O)cc1 | inactive | –
21 | CCCCCCN(CCCCCC)C(=O)Cc1c(-c2ccc(F)cc2)[nH]c2ccccc12 | – | inconclusive: 8.83%
22 | Cn1c(Cn2c(=O)sc3ccccc32)nnc1SCC(=O)Nc1ccc(Cl)cc1 | inactive | –
23 | O=C1c2ccccc2C(=O)N1CCc1nc2ccccc2c(=O)n1Cc1ccco1 | – | inconclusive: 23.9%
24 | CCOC(=O)C1C(C)=CC(=O)CC1c1ccco1 (configuration not stated) | inactive | –
25 | COCCn1c(=S)[nH]c2ccc(N(C)C)cc2c1=O | – | inconclusive: 28.8%
26 | COC(=O)c1ccccc1NC(=O)C(C)NS(=O)(=O)c1ccc(OC)cc1 (configuration not stated) | inconclusive: 0.398 µM [rising, full curve] | –

Row | Compound | Potency | activity change, negative = inhibition
27 | COc1cccc2sc(Nc3nc(-c4ccccn4)cs3)nc12 | inactive | –
28 | O=C(c1nc2nc(-c3ccccc3)cc(C(F)(F)F)n2n1)N1CCCCC1 | inconclusive: 5.01 µM [rising, single point] | –
29 | Cc1cc(C)c2c(n1)nn1c(C3CC3)cc(C(F)(F)F)nc21 | inactive | –
30 | CC(=O)NNC(=O)N1Cc2ccccc2Oc2ccc(Cl)cc21 | – | inconclusive: -24.8%
31 | COc1cc(NC(=O)c2ccccc2)c(OC)cc1NC(C)=O | – | inconclusive: 21.6%
32 | CC1CCCN(S(=O)(=O)c2ccc(C(=O)Nc3nnc(-c4ccccc4Cl)o3)cc2)C1 (configuration not stated) | inactive | –
33 | O=c1c(CCc2ccccc2)nc2cnc(N3CCOCC3)nc2n1C1CC1 | inconclusive: 12.6 µM [rising, single point] | –
34 | CCOC(=O)c1sc(C)c2c1NC(C)(c1cccs1)NC2=O (configuration not stated) | inconclusive: 12.6 µM [rising, single point] | –
35 | CC(C)NC(=O)N1CCCC2(CCN(C(=O)c3ccco3)CC2)C1 | inactive | –
36 | O=C(OC1CCc2ccccc2C1=O)c1ccccc1O (configuration not stated) | – | inconclusive: -27.8%
37 | O=C(CSc1nc(Nc2ccccc2)nc(N2CCOCC2)n1)Nc1ccc2c(c1)OCCO2 | active: 6.31 µM | –
38 | CCNc1ncc2nc(-c3ccc(OC)cc3)c(=O)n(C)c2n1 | inconclusive: 3.16 µM [rising, full curve] | –
39 | N#Cc1nc(COc2ccccc2F)oc1N1CCCCCC1 | – | inconclusive: 24.8%
40 | O=C(CCn1nc(-c2ccccc2)c2ccccc2c1=O)NCC1CCCO1 (configuration not stated) | – | inconclusive: 7.59%
41 | Cc1[nH]c2ccc(-c3nnc(SCC(=O)NCc4ccco4)n3Cc3ccccc3)cc2c1C | inactive | –
42 | CSc1nc(N)c2ncn([C@H]3O[C@H](COP(=O)(O)OP(=O)(O)O)[C@@H](O)[C@@H]3O)c2n1 | – | inconclusive: -2.17%
43 | CCN(CC(=O)NC1CCCC1)S(=O)(=O)c1ccc(C)cc1 | – | inconclusive: -13.6%
44 | COC(=O)c1ccc(CSc2nc3c(c(=O)n2-c2ccc(Br)cc2)SCC3)o1 | – | inconclusive: 17.2%
45 | CCc1cccc2c1NC(=O)[C@]21[C@@H]2C(=O)N(Cc3ccccc3)C(=O)[C@@H]2[C@@H]2CCCN21 | inconclusive: 3.98 µM [falling, partial curve] | –
46 | c1csc(CNc2ccnc(-c3ccoc3)n2)c1 | – | inconclusive: -10.8%
47 | Cc1cc(N2CCN(C(=O)OC(C)(C)C)CC2)n2ncnc2n1 | inactive | –
48 | COc1cccc(-c2nc(CS(=O)CC(=O)NC3CC3)c(C)o2)c1 (configuration not stated) | inactive | –
49 | COC(=O)c1cc2ccc(OC)c(OC)c2c(=O)s1 | inconclusive: 12.6 µM [rising, partial curve] | –
50 | N=C(N)SCCc1cnc[nH]1 | – | inconclusive: -13.5%
51 | Cc1onc(-c2ccccc2Cl)c1C(=O)OCC(=O)N1CCCc2ccccc21 | inactive | –
52 | O=C(CCCOc1ccc(Cl)cc1Cl)N1CCN(c2ccccn2)CC1 | – | inconclusive: 54.3%
